In a collection of fitness landscapes (doi:10.1126/science.1257360):
This is one part of the list.

B1: PhoQ; a variant is named by its letters at X, in order, P23837 (parent)
chain: MKKLLRLFFPLSLRVRFLLATAAVVLVLSLAYGMVALIGYSVSFDKTTFRLLRGESNLFYTLAKWENNKLHVELPENIDKQSPTMTLIYDENGQLLWAQRDVPWLMKMIQPDWLKSNGFHEIEADVNDTSLLLSGDHSIQQQLQEVREDDDDAEMTHSVAVNVYPATSRMPKLTIVVVDTIPVELKSSYMVWSWFIYVLSANLLLVIPLLWVAAWWSLRPIEALAKEVRELEEHNRELLNPATTRELTSLVRNLNRLLKSERERYDKYRTTLTDLTHSLKTPLXXLQXXLRSLRSEKMSVSDAEPVMLEQISRISQQIGYYLHRASMRGGTLLSRELHPVAPLLDNLTSALNKVYQRKGVNISLDISPEISFVGEQNDFVEVMGNVLDNACKYCLEFVEISARQTDEHLYIVVEDDGPGIPLSKREVIFDRGQRVDTLRPGQGVGLAVAREITEQYEGKIVAGESMLGGARMEVIFGRQHSAPKDE

Variants of: B1
Test: enrichment ratio after two sorts for PhoP signalling (ratio (wild type AVST 3.29)); higher = more functional
Conditions: with PhoP (E. coli)

| Variant | enrichment ratio |
| --- | --- |
| SRNL | ≤ 0.25 |
| QLWS | ≤ 0.25 |
| QTVQ | ≤ 0.25 |
| NWPY | ≤ 0.25 |
| MDWA | ≤ 0.25 |
| HICQ | ≤ 0.25 |
| LERY | ≤ 0.25 |
| HTRG | ≤ 0.25 |
| NTMA | ≤ 0.25 |
| PHYC | ≤ 0.25 |
| MFHP | ≤ 0.25 |
| SKGN | ≤ 0.25 |
| MICF | 7.24 |
| GCVN | 1.85 |
| FSDY | ≤ 0.25 |
| SKAE | ≤ 0.25 |
| HCLQ | ≤ 0.25 |
| ERND | ≤ 0.25 |
| PIWV | ≤ 0.25 |
| TTLQ | 10.7 |
| VVRR | ≤ 0.25 |
| EVPD | ≤ 0.25 |
| DVEF | ≤ 0.25 |
| SRDN | ≤ 0.25 |
| QWPP | ≤ 0.25 |

| Variant | enrichment ratio |
| --- | --- |
| GCPK | ≤ 0.25 |
| WNLP | ≤ 0.25 |
| TMED | ≤ 0.25 |
| RITQ | ≤ 0.25 |
| VAGP | ≤ 0.25 |
| GVGQ | ≤ 0.25 |
| KLHY | ≤ 0.25 |
| HYRK | ≤ 0.25 |
| ESQS | ≤ 0.25 |
| FVHG | ≤ 0.25 |
| QPGN | ≤ 0.25 |
| IRMQ | ≤ 0.25 |
| SSLT | 12 |
| RVPH | ≤ 0.25 |
| QNTN | ≤ 0.25 |
| EFGR | ≤ 0.25 |
| LSGM | ≤ 0.25 |
| SRNY | ≤ 0.25 |
| NGMT | ≤ 0.25 |
| LADG | ≤ 0.25 |
| SFRA | ≤ 0.25 |
| IHVY | ≤ 0.25 |
| VVYV | ≤ 0.25 |
| FASH | ≤ 0.25 |
| QLLK | ≤ 0.25 |

| Variant | enrichment ratio |
| --- | --- |
| QNHS | ≤ 0.25 |
| RPHV | ≤ 0.25 |
| SMVQ | 9.3 |
| HPMW | ≤ 0.25 |
| KLLE | ≤ 0.25 |
| VTGP | ≤ 0.25 |
| SFGD | ≤ 0.25 |
| QNMP | ≤ 0.25 |
| QCVW | ≤ 0.25 |
| QARG | ≤ 0.25 |
| NMVP | ≤ 0.25 |
| WDMY | ≤ 0.25 |
| LMAD | ≤ 0.25 |
| SDHC | ≤ 0.25 |
| IIFM | ≤ 0.25 |
| FPFQ | ≤ 0.25 |
| FEPT | ≤ 0.25 |
| WERV | ≤ 0.25 |
| IRNS | ≤ 0.25 |
| VDTL | ≤ 0.25 |
| QPHK | ≤ 0.25 |
| IYTE | ≤ 0.25 |
| YRCS | ≤ 0.25 |
| PVHM | ≤ 0.25 |
| FPPN | ≤ 0.25 |

| Variant | enrichment ratio |
| --- | --- |
| QIGN | ≤ 0.25 |
| RNYH | ≤ 0.25 |
| MKPT | ≤ 0.25 |
| HVWI | ≤ 0.25 |
| LKQI | 0.57 |
| KVHH | ≤ 0.25 |
| GSLC | 9.17 |
| SRVC | ≤ 0.25 |
| IATD | ≤ 0.25 |
| QYSV | ≤ 0.25 |
| IEES | ≤ 0.25 |
| TTWL | 4.31 |
| SEAI | 7.14 |
| KFSF | ≤ 0.25 |
| PLGN | ≤ 0.25 |
| LCWG | ≤ 0.25 |
| RFYY | ≤ 0.25 |
| LWAP | ≤ 0.25 |
| MTHM | 1.64 |
| SAHV | ≤ 0.25 |
| WLRV | ≤ 0.25 |
| RHLD | ≤ 0.25 |
| YPWA | ≤ 0.25 |
| IQTC | ≤ 0.25 |
| VEWL | ≤ 0.25 |

| Variant | enrichment ratio |
| --- | --- |
| MIKI | ≤ 0.25 |
| PGPD | ≤ 0.25 |
| FDFS | ≤ 0.25 |
| TCWT | 2.84 |
| EVYT | ≤ 0.25 |
| CALR | ≤ 0.25 |
| RWKC | ≤ 0.25 |
| SRPQ | ≤ 0.25 |
| DHWM | ≤ 0.25 |
| TEFN | 18.2 |
| RCQC | ≤ 0.25 |
| LQQA | ≤ 0.25 |
| INQP | ≤ 0.25 |
| HARN | ≤ 0.25 |
| AWWV | ≤ 0.25 |
| VRNK | ≤ 0.25 |
| HLGL | ≤ 0.25 |
| ERMI | ≤ 0.25 |
| FYMK | ≤ 0.25 |
| MFFC | ≤ 0.25 |
| IVRG | 0.714 |
| RPTG | ≤ 0.25 |
| QPNK | ≤ 0.25 |
| EGTT | ≤ 0.25 |
| VVIM | ≤ 0.25 |

| Variant | enrichment ratio |
| --- | --- |
| GKDR | ≤ 0.25 |
| ARPR | ≤ 0.25 |
| FYNI | ≤ 0.25 |
| DERL | ≤ 0.25 |
| QELG | 0.792 |
| PFIP | ≤ 0.25 |
| AVNL | ≤ 0.25 |
| NFHW | ≤ 0.25 |
| GHMW | ≤ 0.25 |
| IYDN | ≤ 0.25 |
| NKPQ | ≤ 0.25 |
| LRDP | ≤ 0.25 |
| PREN | ≤ 0.25 |
| SNCY | 7.63 |
| HPIS | ≤ 0.25 |
| PIRA | ≤ 0.25 |
| VSLD | ≤ 0.25 |
| ISMG | 1.17 |
| LYGK | ≤ 0.25 |
| FPGR | ≤ 0.25 |
| NRFQ | 4.31 |
| ATWK | ≤ 0.25 |
| KIPQ | ≤ 0.25 |
| PHSK | ≤ 0.25 |
| NIQM | ≤ 0.25 |

| Variant | enrichment ratio |
| --- | --- |
| DFYF | ≤ 0.25 |
| MTPT | ≤ 0.25 |
| TKCM | 46.1 |
| WHVS | ≤ 0.25 |
| HKGP | ≤ 0.25 |
| IHYS | ≤ 0.25 |
| FHCK | ≤ 0.25 |
| TWAP | ≤ 0.25 |
| IVVG | ≤ 0.25 |
| DWNF | ≤ 0.25 |
| ACNT | ≤ 0.25 |
| KEPG | ≤ 0.25 |
| FAVE | ≤ 0.25 |
| NLYM | ≤ 0.25 |
| NNFD | ≤ 0.25 |
| RHYN | ≤ 0.25 |
| PRYQ | ≤ 0.25 |
| VQDI | ≤ 0.25 |
| NVVV | ≤ 0.25 |
| MNLP | ≤ 0.25 |
| AYTD | ≤ 0.25 |
| ILHA | ≤ 0.25 |
| ESQE | ≤ 0.25 |
| YWWH | ≤ 0.25 |
| DYWT | ≤ 0.25 |

| Variant | enrichment ratio |
| --- | --- |
| SRGG | ≤ 0.25 |
| YNEH | ≤ 0.25 |
| TSDF | 4.52 |
| WTEP | ≤ 0.25 |
| FAHV | ≤ 0.25 |
| IFRS | ≤ 0.25 |
| RNRQ | ≤ 0.25 |
| YNFP | ≤ 0.25 |
| LVRH | ≤ 0.25 |
| MPTP | ≤ 0.25 |
| IWGK | ≤ 0.25 |
| ELEV | ≤ 0.25 |
| SCTL | 14.2 |
| GVMK | ≤ 0.25 |
| LSQC | 0.388 |
| KITG | ≤ 0.25 |
| DDVV | 2.72 |
| GHED | ≤ 0.25 |
| PQLR | ≤ 0.25 |
| FHYG | ≤ 0.25 |
